Test results: paper PMC6919601, “Identification of Plasmodium dipeptidyl aminopeptidase allosteric inhibitors by high throughput screening” (PLoS ONE, 2019)
Out of some 110,000 compounds screened, about 230 (0.21%) showed an effect of 50% or more. This is one part of the list.

Target: DPAP1 (Plasmodium falciparum, UniProt Q8IIJ9)
Assay: primary screen, percent inhibition; read by cleavage of a fluorogenic dipeptide substrate; higher = more effect of the substance
Set-up: species or system P. falciparum D10 trophozoite lysates; single well
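Further: 30 min substrate incubation versus DMSO and 10 µM JCP410 controls.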

Sequence of DPAP1 (Q8IIJ9 whole entry, looked up): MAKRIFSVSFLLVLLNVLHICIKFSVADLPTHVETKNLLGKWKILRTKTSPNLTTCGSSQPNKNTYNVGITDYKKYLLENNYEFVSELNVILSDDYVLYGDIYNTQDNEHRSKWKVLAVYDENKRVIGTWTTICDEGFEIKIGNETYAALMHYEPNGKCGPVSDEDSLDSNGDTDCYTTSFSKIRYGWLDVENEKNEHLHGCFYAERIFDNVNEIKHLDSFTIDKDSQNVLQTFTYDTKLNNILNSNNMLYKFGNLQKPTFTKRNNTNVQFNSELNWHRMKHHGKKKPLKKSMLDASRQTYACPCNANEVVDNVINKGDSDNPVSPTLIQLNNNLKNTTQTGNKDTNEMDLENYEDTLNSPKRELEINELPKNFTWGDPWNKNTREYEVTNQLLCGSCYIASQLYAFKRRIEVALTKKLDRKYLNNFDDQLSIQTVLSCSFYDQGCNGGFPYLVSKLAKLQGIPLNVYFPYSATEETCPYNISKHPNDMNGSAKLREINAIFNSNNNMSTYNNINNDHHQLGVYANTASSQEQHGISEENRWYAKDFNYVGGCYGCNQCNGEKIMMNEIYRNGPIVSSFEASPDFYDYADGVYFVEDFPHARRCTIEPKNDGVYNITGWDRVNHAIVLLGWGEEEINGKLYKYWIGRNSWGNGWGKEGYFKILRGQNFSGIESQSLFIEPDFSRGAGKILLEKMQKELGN

SMILES	% Inhibition @ 10 uM [%]
O=C(NCC1CCCO1)c1ccc(Br)cc1 (stereo not drawn)	-1.41
Cc1cc(Cl)c(OCCOCCN2CCNCC2)c(Cl)c1	-12.3
COc1ccccc1N(CC(=O)NCc1ccc(Cl)cc1Cl)S(C)(=O)=O	-1.74
COc1ccc(C2C(C(=O)Nc3ccc(Cl)cc3)=C(C)Nc3nc(CCCO)nn32)c(OC)c1 (stereo not drawn)	0.528
COc1cc(/C=C2/C=C(c3ccc4ccccc4c3)OC2=O)ccc1O	7.87
Cc1ccc(-c2csc(Nc3ccc(Br)cc3)n2)cc1	-0.771
CC1=C(C(=O)Nc2ccccc2C)C(c2ccc(Br)cc2)C2=C(O)CCCC2=N1 (stereo not drawn)	2.38
O=C(O)c1ccc(-c2ccc(Cl)cc2Cl)o1	23.5
Cc1ccc(S(=O)(=O)N2CCOCC2)c(C)c1N1CCCC1=O	-1.96
CCOC(=O)N1CCN(C(=O)CCSc2ccccc2)CC1	-7.14
COc1cccc(Nc2nc(NCC3CCCO3)c3ccccc3n2)c1 (stereo not drawn)	-4.49
O=C(Nc1ccc(S(=O)(=O)N2CCCCCC2)cc1)c1ccccc1Br	-5.15
O=C1c2ccccc2C(=O)N1Cc1nc2c3c4c(sc3ncn2n1)CCCC4	4.57
CCCOc1ccc(Cn2c(=O)oc3ccc(C)cc32)cc1OC	-0.759
C(=C1/NC2(CCCCC2)Cc2ccccc21)/c1ccc2ccccc2n1	-1.32
COCC(C)NC(=O)c1cc2c(=O)n3cccc(C)c3nc2n1C (stereo not drawn)	1.68
Cc1cc(C)cc(OCc2ccc(C(=O)O)o2)c1	-4.05
CCOC(=O)N1CCC(/N=c2\c(O)c(O)\c2=N/CCN2CCN(Cc3ccccc3)CC2)CC1	-3.21
COc1cccc(OCC(O)CN2CCC(CN3C(=O)c4cccc5cccc(c45)C3=O)CC2)c1 (stereo not drawn)	4.47
O=C(NCCCN1CCCC1)C12CC3CC(CC(C3)C1)C2	0.266
COc1ccc(C(=O)Nc2nnc(SCc3cc(=O)n4oc(C)cc4n3)s2)cc1	0.747
Cc1nn(C(C)C(=O)NCCN2CCOCC2)c(=O)c2nn(-c3ccccc3)c(C)c12 (stereo not drawn)	2.31
COCCCNC(=O)c1cc(-c2ccc(C)cc2)nc2ccc(Br)cc12	-4.59
Clc1ccccc1N1CCN(Cc2ccoc2)CC1	-8.39

SMILES	% Inhibition @ 10 uM [%]
O=C(O)CCC(=O)Nc1sc2c(c1C(=O)Nc1cccc3ccccc13)CCCC2	17.5
CCOC(=O)CNC(=O)C1=C(C(=O)O)CCCC1	-8.11
Cc1c(C(=O)NCCCN2CCN(C)CC2)oc2c1-c1nn(Cc3cccc(Cl)c3)cc1CC2	4.33
Cc1c(CNCCc2c[nH]c3ccccc23)c(C(=O)O)c(C)n1Cc1cccc(Cl)c1	-1.92
O=C1C(Nc2cccc(Br)c2)=C(N2CCCCC2)C(=O)c2ccccc21	1.84
O=C(CCc1nc2cccnc2n1-c1ccccc1)NCCc1ccccc1	-4.74
CC1CCCN(C(C(=O)NC2CCCC2)c2ccc(Cl)cc2)C1 (stereo not drawn)	5.11
Cc1cccc(C)c1OCC(=O)Nc1ccc(S(=O)(=O)NC(C)(C)C)cc1	-2.28
O=C(NCc1cccs1)c1cc(-c2ccc(Cl)cc2)n[nH]1	1.94
COc1cc(C2=N/C(=C\c3ccc(C(C)(C)C)cc3)C(=O)O2)cc(OC)c1OC	84.3
Cc1oc2ncn(C)c(=O)c2c1C(=O)N(CCN(C)C)Cc1ccco1	1.58
CCOc1cc(/C=C2/SC(N3CCOCC3)=NC2=O)ccc1O	-1.08
O=C1CC(c2cccs2)c2c(O)nc3ccccc3c2O1 (stereo not drawn)	2.77
COc1ccccc1NC(=O)CSc1nc(-c2ccc(OC)c(OC)c2)ccc1C#N	4.28
CSc1ncc(C(=O)NCc2ccc(C)cc2)c(C(F)(F)F)n1	0.776
FC(F)(F)c1cccnc1N1CCN(c2ncnc3[nH]cnc23)CC1	0.221
CCNC1(c2ccccc2)C(=O)c2ccccc2C1=O	-0.25
CCC(C)NC(=O)c1cc2cc3ccc(OC)cc3nc2s1 (stereo not drawn)	-0.704
CCOC(=O)c1c(C)c(C(=O)NCCC2=CCCCC2)c(C)n1CC	-3.44
Cc1cc(C(F)(F)F)nc(NC(=O)NC(=O)c2cccc(F)c2)n1	0.475
O=C(CN1C(=O)C(c2ccccc2)Oc2cccnc21)NCc1ccccc1Cl (stereo not drawn)	11.9
COc1ccc2c(C)c(C(=O)NCCNC(=O)c3oc4c(OC)c(OC)ccc4c3C)oc2c1OC	1.7
O=C1c2ccccc2C(=O)c2c1n[n+]([O-])n2CCCN1CCOCC1	-2.79
NC(=O)c1cc(S(=O)(=O)N2CCc3ccccc3C2)cs1	-5.57
